# The other results are listed elsewhere or left out.
# Columns and labels:
# HSkMC = human skeletal muscle cells; test: cytotoxicity call (relative viability < 0.9); settings: 10 µM
# HepG2 = test: cytotoxicity call (relative viability < 0.9); settings: 10 µM
# S. aureus RN4220 = test: growth inhibition call (relative growth <= 0.2); settings: 50 µM
SMILES,cytotoxicity call (HSkMC),cytotoxicity call (HepG2),growth inhibition call (S. aureus RN4220)
C[C@@H]1CCCCO[C@H](CN(C)C(=O)Nc2ccc(C(F)(F)F)cc2)[C@@H](C)CN([C@@H](C)CO)C(=O)c2cc(NS(=O)(=O)c3ccccc3)ccc2O1,inactive,inactive,inactive
CCS(=O)(=O)N1C[C@]2(C1)CN([C@H](CO)c1[nH]c3cc(ccc3c12)OC)S(=O)(=O)c1cn(cn1)C,inactive,inactive,inactive
CN1CC(=O)N2C(Cc3c([nH]c4ccccc34)C2c2ccc3c(c2)OCO3)C1=O (stereo not drawn),inactive,inactive,inactive
C[C@H](CO)N1C[C@H](C)[C@H](CN(C)Cc2ccc(O)cc2)OCc2ccccc2-c2c(n(C)c3ccccc23)C1=O,inactive,inactive,inactive
Cc1noc(C)c1S(=O)(=O)N(C)C[C@H]1Oc2c(NC(=O)NC3CCCCC3)cccc2C(=O)N([C@H](C)CO)C[C@@H]1C,inactive,inactive,inactive
C[C@H](CO)N1C[C@H](C)[C@H](CN(C)S(=O)(=O)c2ccc(F)cc2)Oc2ccc(NC(=O)Nc3cccc4ccccc34)cc2CC1=O,inactive,active,inactive
COc1ccc(NC(=O)Nc2cccc3c2O[C@H](CN(C)C(=O)Nc2cccc4ccccc24)[C@H](C)CN([C@@H](C)CO)C3=O)cc1,inactive,inactive,inactive
Clc1cccc(Cl)c1CSCc1cc2ccccc2o1,inactive,inactive,inactive
COc1ccc(S(=O)(=O)N(C)C[C@H]2Oc3ccc(NC(=O)Nc4c(C)noc4C)cc3CC(=O)N([C@H](C)CO)C[C@@H]2C)cc1,inactive,inactive,inactive
CN(C)CCCCCCNC(=O)[C@@H]1C[C@@H]2C(=O)NCC(=O)N2[C@@H]1c1cccc(OCCO)c1,inactive,inactive,inactive
CCCNC(=O)C[C@H]1CC[C@@H]2[C@@H](COc3ccc(NS(=O)(=O)c4ccccc4C)cc3C(=O)N2C)O1,inactive,inactive,inactive
C[C@H]1CN([C@@H](C)CO)C(=O)c2cccc(NC(=O)c3cnccn3)c2O[C@@H]1CN(C)S(=O)(=O)c1ccc(Cl)cc1,inactive,inactive,inactive
Cc1noc(C)c1S(=O)(=O)Nc1ccc2c(c1)CC(=O)N([C@@H](C)CO)C[C@H](C)[C@@H](CN(C)S(=O)(=O)c1c(C)noc1C)O2,inactive,inactive,inactive
CCc1c(c/2[nH]c1/C=C/1\N=C(/C(=C/3\N=C(/C=C/4\N/C(=C2)C(=C4C)C=C)[C@@H](C)[C@@H]3CCC(=O)O)CC(=O)N[C@@H](CC(=O)O)C(=O)O)C(=C1C)C(=O)O)C,inactive,inactive,inactive
Cc1noc(C)c1NC(=O)Nc1ccc2c(c1)CC(=O)N([C@@H](C)CO)C[C@H](C)[C@@H](CN(C)S(=O)(=O)c1c(C)noc1C)O2,inactive,inactive,inactive
O=C1NN=COc2ccccc21,inactive,inactive,inactive
Cc1noc(C)c1NC(=O)N(C)C[C@@H]1Oc2cc(Br)ccc2S(=O)(=O)N([C@@H](C)CO)C[C@H]1C,inactive,inactive,inactive
Cc1ccc(S(=O)(=O)Nc2ccc3c(c2)C(=O)N([C@H](C)CO)C[C@H](C)[C@H](CN(C)S(=O)(=O)c2cccs2)O3)cc1,inactive,inactive,inactive
CCS(=O)(=O)Nc1ccc2c(c1)C(=O)N(C)C[C@H](OC)[C@H](C)CN(Cc1ccccn1)[C@H](C)CO2,inactive,inactive,inactive
CS(=O)(=O)Nc1ccc2c(c1)[C@H]1C[C@H](CC(=O)NCc3ccc(-c4ccccc4)cc3)O[C@H](CO)[C@H]1O2,inactive,inactive,inactive
CC=Cc1ccc2n(c1=O)C[C@H]1[C@H](CO)[C@@H](C(=O)NCCC)[C@@H]2N1S(=O)(=O)c1cn(C)cn1,inactive,inactive,inactive

# Source: the antibiotic and cytotoxicity screens of Wong et al. (2023)
